{"source": "the supplement of paper PMC3724861", "note": "This is one part of the list."}
{"test_system": "T1, Caupolican (Caup) homeodomain DNA-binding domain", "T1 sequence": "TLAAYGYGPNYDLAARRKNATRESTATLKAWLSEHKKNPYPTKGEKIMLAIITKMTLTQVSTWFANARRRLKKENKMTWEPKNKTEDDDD", "assay": "PBM E-score (8-mer, recovered from the published 9-mer minima) (E-score (dimensionless, -0.5 to 0.5)); Drosophila protein; higher = stronger relative binding preference, active = 0.31 or more", "procedure,_shortened": "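An enrichment score, with higher meaning stronger, expresses relative binding preference for each short DNA word. The protein used was Caup's homeodomain DNA-binding domain (residues 214-303), produced by in vitro transcription and translation and tested at 100 nM on custom-designed protein binding microarrays. The 8-mer values were recovered from published 9-mer scores, each equal to the lower of its two constituent 8-mer scores.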"}
{"sequence": "CGCACATA", "PBM E-score": "inactive: -0.0111"}
{"sequence": "CAAAAGGA", "PBM E-score": "inactive: 0.0369"}
{"sequence": "AAGTACAC", "PBM E-score": "inactive: 0.288"}
{"sequence": "CTCGTCTA", "PBM E-score": "inactive: -0.0219"}
{"sequence": "AACGGCTA", "PBM E-score": "inactive: -0.0183"}
{"sequence": "AAGCAATA", "PBM E-score": "inactive: 0.0658"}
{"sequence": "ATAGGCCC", "PBM E-score": "inactive: -0.176"}
{"sequence": "GTCCTCAC", "PBM E-score": "inactive: -0.0666"}
{"sequence": "CGCTAGTC", "PBM E-score": "inactive: -0.0708"}
{"sequence": "GGCAGAAA", "PBM E-score": "inactive: -0.00752"}
{"sequence": "CGTTGTAC", "PBM E-score": "inactive: 0.307"}
{"sequence": "AGGAGAAC", "PBM E-score": "inactive: -0.0211"}
{"sequence": "ATGGAGTA", "PBM E-score": "inactive: 0.109"}
{"sequence": "GCGTATAC", "PBM E-score": "inactive: 0.0984"}
{"sequence": "GGTCAGCA", "PBM E-score": "inactive: -0.0274"}
{"sequence": "CCGCATAC", "PBM E-score": "inactive: -0.0411"}
{"sequence": "ATCCAGCA", "PBM E-score": "inactive: 0.0163"}
{"sequence": "CTCAAGGC", "PBM E-score": "inactive: -0.0901"}
{"sequence": "ATACACTC", "PBM E-score": "inactive: 0.117"}
{"sequence": "GACGCGGA", "PBM E-score": "inactive: -0.0916"}
{"sequence": "CAACGTCG", "PBM E-score": "inactive: 0.0558"}
{"sequence": "ATCCCATG", "PBM E-score": "inactive: 0.115"}
{"sequence": "ATGTGCTC", "PBM E-score": "inactive: 0.118"}
{"sequence": "CGGGTCCC", "PBM E-score": "inactive: -0.327"}
{"sequence": "AATTCTGA", "PBM E-score": "inactive: 0.0526"}
{"sequence": "GTCCTCAA", "PBM E-score": "inactive: -0.00054"}
{"sequence": "TAAGCACA", "PBM E-score": "inactive: 0.0723"}
{"sequence": "GTGAGGGA", "PBM E-score": "inactive: -0.149"}
{"sequence": "GGTTTGGA", "PBM E-score": "inactive: -0.00066"}
{"sequence": "CCATTTTC", "PBM E-score": "inactive: 0.0244"}
{"sequence": "AGTTATGC", "PBM E-score": "inactive: -0.0412"}
{"sequence": "ACAGCACC", "PBM E-score": "inactive: -0.0021"}
{"sequence": "ACCGCCTA", "PBM E-score": "inactive: -0.0971"}
{"sequence": "ACCAAGCA", "PBM E-score": "inactive: 0.042"}
{"sequence": "ACAGCCGG", "PBM E-score": "inactive: -0.0197"}
{"sequence": "CATATTAA", "PBM E-score": "inactive: 0.269"}
{"sequence": "ATGTCTGA", "PBM E-score": "inactive: 0.249"}
{"sequence": "CAGTGAAA", "PBM E-score": "inactive: 0.00891"}
{"sequence": "ACTGTTAC", "PBM E-score": "inactive: 0.192"}
{"sequence": "AAGCTCGA", "PBM E-score": "inactive: -0.00155"}
{"sequence": "CGCATGTA", "PBM E-score": "active: 0.352"}
{"sequence": "CGTACAAG", "PBM E-score": "active: 0.37"}
{"sequence": "CTAATTCA", "PBM E-score": "inactive: 0.0803"}
{"sequence": "AGTTATAA", "PBM E-score": "inactive: 0.164"}
{"sequence": "ATGTCGTG", "PBM E-score": "active: 0.316"}
{"sequence": "AAGTGACG", "PBM E-score": "inactive: 0.023"}
{"sequence": "GAAAGTAA", "PBM E-score": "inactive: 0.0183"}
{"sequence": "ACCGCCAG", "PBM E-score": "inactive: -0.145"}
{"sequence": "CGCTAAAA", "PBM E-score": "≥ 0.0305"}
{"sequence": "GTGCGCAC", "PBM E-score": "inactive: -0.00225"}
{"sequence": "CCCATAGA", "PBM E-score": "inactive: -0.0639"}
{"sequence": "AAGAGCAA", "PBM E-score": "inactive: -0.0342"}
{"sequence": "ACATCGGT", "PBM E-score": "≥ 0.166"}
{"sequence": "CATTGAAC", "PBM E-score": "inactive: 0.11"}
{"sequence": "ACCTCAAG", "PBM E-score": "inactive: -0.0487"}
{"sequence": "TAAAGTAA", "PBM E-score": "inactive: 0.152"}
{"sequence": "AATGACAT", "PBM E-score": "inactive: 0.298"}
{"sequence": "AGCGTCAC", "PBM E-score": "inactive: -0.104"}
{"sequence": "CTTCATGC", "PBM E-score": "inactive: -0.0768"}
{"sequence": "GTTCTATA", "PBM E-score": "inactive: 0.0984"}
{"sequence": "AGATCAGG", "PBM E-score": "inactive: -0.0683"}
{"sequence": "CTTGACCC", "PBM E-score": "inactive: -0.103"}
{"sequence": "ATGATTCC", "PBM E-score": "≥ 0.136"}
{"sequence": "GAGTCGAA", "PBM E-score": "inactive: -0.0477"}
{"sequence": "TCCTAGGA", "PBM E-score": "inactive: -0.0852"}
{"sequence": "TGGGATAA", "PBM E-score": "inactive: 0.0307"}
{"sequence": "ACTTTACC", "PBM E-score": "inactive: 0.122"}
{"sequence": "TATGCACA", "PBM E-score": "inactive: 0.154"}
{"sequence": "GATATTCC", "PBM E-score": "inactive: -0.00393"}
{"sequence": "GGCGCGTA", "PBM E-score": "inactive: -0.163"}
{"sequence": "CGCATATA", "PBM E-score": "inactive: 0.107"}
{"sequence": "CCCCCCTA", "PBM E-score": "inactive: -0.314"}
{"sequence": "AGAGCTCG", "PBM E-score": "inactive: -0.128"}
{"sequence": "AGGCTTGC", "PBM E-score": "inactive: -0.142"}
{"sequence": "GTCTCGGA", "PBM E-score": "inactive: -0.0363"}
{"sequence": "ATCGGTCC", "PBM E-score": "inactive: -0.177"}
{"sequence": "CCTGATAG", "PBM E-score": "inactive: -0.0364"}
{"sequence": "ACACTTCA", "PBM E-score": "≥ 0.141"}
{"sequence": "CCAGCATA", "PBM E-score": "inactive: 0.0366"}
{"sequence": "AGTCAAAA", "PBM E-score": "inactive: -0.0112"}
{"sequence": "CTTCAGGA", "PBM E-score": "inactive: -0.143"}
{"sequence": "CTGGAAAA", "PBM E-score": "inactive: 0.0154"}
{"sequence": "ACCACAGC", "PBM E-score": "inactive: -0.0244"}
{"sequence": "GGGTCCAC", "PBM E-score": "inactive: -0.23"}
{"sequence": "AACTCGGC", "PBM E-score": "inactive: 0.0026"}
{"sequence": "ACTGCAGA", "PBM E-score": "inactive: 0.0173"}
{"sequence": "CTGCGGAC", "PBM E-score": "inactive: -0.0386"}
{"sequence": "CTAGTTAA", "PBM E-score": "inactive: 0.134"}
{"sequence": "AGATAGGC", "PBM E-score": "inactive: -0.0502"}
{"sequence": "TGGAGCCA", "PBM E-score": "inactive: -0.17"}
{"sequence": "CCTCGTCG", "PBM E-score": "inactive: -0.0451"}
{"sequence": "CAGGGGTC", "PBM E-score": "inactive: -0.144"}
{"sequence": "CGAGTCCG", "PBM E-score": "inactive: -0.114"}
{"sequence": "CGACAGAG", "PBM E-score": "inactive: -0.0272"}
{"sequence": "AAGACTGG", "PBM E-score": "inactive: 0.0707"}
{"sequence": "TACTAAGA", "PBM E-score": "inactive: 0.127"}
{"sequence": "CGCGTAGA", "PBM E-score": "inactive: -0.0776"}
{"sequence": "AGAAGTAT", "PBM E-score": "inactive: 0.0854"}
{"sequence": "ACCGAAGG", "PBM E-score": "inactive: -0.176"}
{"sequence": "GAGGTGGA", "PBM E-score": "inactive: -0.0796"}
{"sequence": "GCCGAGGA", "PBM E-score": "inactive: -0.0401"}
{"sequence": "AGAAGGTC", "PBM E-score": "inactive: -0.00854"}
{"sequence": "GGAGCAGA", "PBM E-score": "inactive: -0.146"}
{"sequence": "CAATAGAG", "PBM E-score": "inactive: -0.0408"}
{"sequence": "ACGTGCCG", "PBM E-score": "inactive: -0.0445"}
{"sequence": "CATACCTA", "PBM E-score": "inactive: 0.108"}
{"sequence": "AGCACGGG", "PBM E-score": "inactive: -0.0941"}
{"sequence": "CCCCCGGG", "PBM E-score": "inactive: -0.317"}
{"sequence": "TCGTGACA", "PBM E-score": "inactive: 0.231"}
{"sequence": "ACTAAGCC", "PBM E-score": "inactive: -0.113"}
